# Measured values: PubChem BioAssay AID624296 (National Center for Advancing Translational Sciences (NCATS), 2012)
# About 9,900 (2.8%) of roughly 350,000 compounds were called active. Inconclusive means that the source gave no clear call. Such entries were picked first, then a sample of the others. The call rests on the fitted dose curve; in most records, active means well fitted activation curve with a large enough effect; inconclusive means small, poorly fitted or top-dose-only effect; inactive means no such curve, though single readings can be large or run the other way. No potency is given beside an inconclusive call; the fits are too rough.
# Experiment: A quantitative high throughput screen for small molecules that induce DNA re-replication in MCF 10a normal breast cells. Further: nearly all actives have a fitted effect of over 50% in size. On activity, positive = re-replication: % of control where 0% means no effect.
# Details: MCF 10A DNA re-replication, Hoechst nuclear intensity, 48 h; activity, positive = re-replication: at 46.1 µM (top of the series)
# Potency means the concentration at half of the fitted maximal effect; tags describe the fitted curve by direction and shape.
SMILES,Potency,"activity, positive = re-replication"
O=C(c1cc(Br)ccc1Cl)N1CCN(c2ccc(N3CCOCC3)nn2)CC1,"inconclusive [activator, partial curve, poor fit]",–
Cc1cccc(N2CCN(C(=O)CCN3C(=S)NC(C)(C)CC3C)CC2)c1C (stereo not drawn),–,inactive: 13.7%
COc1ccc(COc2ccccc2C(=O)NCc2ccccc2)cc1F,"inconclusive [activator, single point]",–
CCC(=O)N1CCc2cc(S(=O)(=O)NCCC(=O)N3CCN(c4cccc(OC)c4)CC3)ccc21,"inconclusive [activator, single point]",–
Cn1cc(Cl)c(-c2n[nH]c(=S)n2C2CCCCC2)n1,–,inactive: 8.48%
COc1ccc(NS(=O)(=O)c2ccc(C(=O)N3CCN(Cc4ccccc4)CC3)cc2)cc1,–,inactive: -2.9%
COc1cc2c(cc1OC)CN(C(=O)/C=C/c1ccccc1[N+](=O)[O-])CC2,active: 13 µM,–
O=C(CN1C(=O)NC(c2ccccc2)(c2ccccc2)C1=O)NCc1ccc(F)cc1,–,inactive: 3.65%
O=C(O)C(Cc1c[nH]c2ccccc12)N1CCS(=O)(=O)CC1 (stereo not drawn),–,inactive: 11.2%
CCCC1=C(C(=O)OCC)C(c2c(C)nn(-c3ccccc3)c2Cl)C(C#N)=C(N)O1 (stereo not drawn),"inconclusive [activator, single point]",–
Cn1c(SCC(=O)N/N=C/c2cccs2)nc2ccccc21,–,inactive: -2.36%
Cc1cc(NS(=O)(=O)c2ccc(NC(=O)c3cc(-c4ccccc4Cl)nc4ccccc34)cc2)no1,"inconclusive [activator, partial curve, poor fit]",–
CN1CCN(CCCNc2nc3ccccc3c3nc(-c4ccccc4)nn23)CC1,"inconclusive [activator, partial curve]",–
CC1CN(CCOc2cccc(Oc3ccccc3)c2)CC(C)O1 (stereo not drawn),"inconclusive [activator, single point]",–
CCOC(=O)N1CCN(c2ncnc3scc(-c4ccccc4)c23)CC1,"inconclusive [activator, partial curve, poor fit]",–
CC(C)c1c(C(=O)N/N=C/c2ccc(C(F)(F)F)cc2)nnn1-c1nonc1N,"inconclusive [activator, single point]",–
CC1CCc2c(sc3ncnc(SC(C)C(=O)NCC4CCCO4)c23)C1 (stereo not drawn),"inconclusive [activator, partial curve, poor fit]",–
O=C1N/C(=N\c2ccccn2)SC1Cc1ccccc1Cl (stereo not drawn),"inconclusive [activator, partial curve, poor fit]",–
Cc1c2ccccc2nc2c(F)c(N(C)C)c(F)c(F)c12,"inconclusive [activator, single point]",–
Cc1[nH]c2ccccc2c1C(=O)C(=O)N1c2ccccc2CC1C (stereo not drawn),"inconclusive [activator, single point]",–
CCCCSCCCNC(=O)c1ccc2c(c1)N(CC)C(=O)c1ccccc1S2=O (stereo not drawn),"inconclusive [activator, single point]",–
Cc1ccc(NC(=S)Nc2cccc3ccccc23)cc1F,"inconclusive [activator, single point]",–

SMILES,Potency,"activity, positive = re-replication"
COc1ccc(CN2C(=O)c3ccc(C(=O)O)cc3C2=O)cc1,–,inactive: -1.54%
Cc1ccc(NC(=O)c2cc(S(=O)(=O)NCCC3=CCCCC3)ccc2F)cc1F,"inconclusive [activator, partial curve]",–
CC1=NN(C(=O)c2ccc(Cl)cc2)C(O)(c2ccccc2)C1 (stereo not drawn),active: 14.6 µM,–
Cc1c(NC(=O)c2cc(-c3ccc(Cl)s3)nc3ccccc23)c(=O)n(-c2ccccc2)n1C,"inconclusive [activator, full curve]",–
CN1CCCN(C(=O)c2ccc(Cl)c(S(=O)(=O)N(C)c3ccccc3)c2)CC1,active: 20.6 µM,–
Cc1cc(Nc2nc3ccccc3nc2Cl)n(-c2ccccc2C)n1,"inconclusive [activator, single point]",–
Cc1ccc(Cl)cc1N1CCN(C(=O)C2CCN(S(=O)(=O)c3c(C)nn(C)c3C)CC2)CC1,"inconclusive [activator, single point]",–
CC(C)(C)C(=O)Nc1cc(C(F)(F)F)ccc1-n1ccnc1,–,inactive: -0.074%
CCN(CC(=O)Nc1ccc(NC(C)=O)cc1)C(=O)C1CCN(C(=O)c2ccccc2C)CC1,–,inactive: 19.9%
CCOc1ccc(S(=O)(=O)NCCC(=O)N2CCN(c3ncccn3)CC2)cc1,–,inactive: -8.92%
CCOC(=O)c1nc(C)nc(Sc2n[nH]c(-c3cc(Cl)cc(Cl)c3)n2)c1C,"inconclusive [activator, single point]",–
Cc1cc([N+](=O)[O-])nn1CC(=O)N1c2ccccc2CC1C (stereo not drawn),"inconclusive [activator, partial curve, poor fit]",–
O=C(c1ccccc1F)N1CCN(c2ccc([N+](=O)[O-])c(NCc3cccnc3)c2)CC1,–,inactive: 24.4%
Cc1coc(C)c1C(=O)CC1(O)C(=O)N(CCc2ccccc2)c2ccccc21 (stereo not drawn),"inconclusive [activator, single point]",–
COc1ccc(C(=O)NCC(c2ccco2)N2CCc3ccccc32)cc1 (stereo not drawn),active: 5.8 µM,–
O=c1[nH]c2cc3c(cc2cc1CN(CCc1ccccc1)C(=S)NCCCN1CCOCC1)OCCO3,"inconclusive [activator, single point]",–
O=C(CCCCCn1c(SCC(=O)c2ccccc2)nc2ccccc2c1=O)NCc1ccco1,"inconclusive [activator, single point]",–
Cc1nnc(NC(=O)c2nc(S(=O)(=O)Cc3ccccc3)ncc2Cl)s1,"inconclusive [activator, partial curve, poor fit]",–
Cc1nc(Nc2ccccc2)sc1C(=O)c1ccccc1,"inconclusive [activator, partial curve, poor fit]",–
O=C(Cn1nc(Br)nc1Br)c1ccccc1,"inconclusive [activator, single point]",–
COc1ccccc1-[n+]1c(C)cc(/C=C2\Sc3ccccc3N2C)cc1C,–,inconclusive: 260% [activator]
